Measurements: paper PMC12136788
The list shows a part of the results.

T1: UNK ZnF1-3 (human, UniProt Q9C0B0 31-174)
T1 sequence: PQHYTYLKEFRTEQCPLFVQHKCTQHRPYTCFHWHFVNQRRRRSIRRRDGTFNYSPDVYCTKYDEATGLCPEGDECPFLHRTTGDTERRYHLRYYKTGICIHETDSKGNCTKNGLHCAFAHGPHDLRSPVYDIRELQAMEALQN

B1: chrX:55033037:55033038:+_ENSG00000169188_ENST00000374987|hu_hu|motif|central (ssRNA)
RNA: GGGAGUUCUACAGUCCGACGAUCAGUGACUGCUGACCAGCAGGUGAAGGCCCCCUCCUGCUUUGGUUGGAAGCAGCGGUAGCGGUCGAUGAAGGGCCCUACAUGAGAGGCAGACUGGCACCCCAAGUUACUGAGCAAGCUGUCCAACAGAGGAUUGAGCAUCA
B2: chr12:77883852:77883853:+_ENSMUSG00000090258_ENSMUST00000041262|mus_mus|FALSE|FALSE (ssRNA)
RNA: GGGAGUUCUACAGUCCGACGAUCAAGAGAACCAUGGGAGGCUUAGAACAGCAGAGUCAUCUGCCGGGGGUCAUCAGGGAGAAUACUGAUAGUAUCUUCAGCUUUGCCACACAACAGACACAGCAUGGUAUAUUCCUGAAAUUCCAACAGAGGAUUGAGCAUCA
B3: chr4:44140560:44140561:-_ENSMUSG00000035696_ENSMUST00000045793|mus_mus|motif|central (ssRNA)
RNA: GGGAGUUCUACAGUCCGACGAUCUUAAGUAUUUCUGACACUAACACAAACCUAGGGGCAACAGAAUGUAGGUCAAAUCCGGUUUGUCUAACUAGGUAGAGGCAACAGUGUCUGGAAGAGGACAAAAUUGUGCUUCUGUGUGGACAACAGAGGAUUGAGCAUCA
B4: chr12:39756943:39756944:-_ENSG00000139116_ENST00000544797|hu_mus|hu_hu_hu_mus_False|78_88 (ssRNA)
RNA: GGGAGUUCUACAGUCCGACGAUCGGUUUGGCUGUUACCCCCAAGGGAAUCCUGUAGUAGUCUUGUUAGCUUAGAGUCUCUGUAAGGGACAUGGGUGGCUCUCUUGCUCUUGUCCCCCAAGGCGCUGAUUACAUUCCCAAGAGCCAACAGAGGAUUGAGCAUCA
B5: chr2:176857141:176857142:-_ENSG00000144320_ENST00000272748|hu_hu|FALSE|FALSE (ssRNA)
RNA: GGGAGUUCUACAGUCCGACGAUCUUUUUGUAAUCUCUGAUUUUUUUCCCUAAAUUCUUCCAAUGCUUGAAUUUCCUUAUCUAUACUUUCUAGAACUUCUACAGUUGAAGGUUUUGUCCUCCAUCGAGAAAAUAAUCCACCCAUCAACAGAGGAUUGAGCAUCA
B6: chr15:52350861:52350862:+_ENSG00000069956_ENST00000261845|hu_hu|FALSE|FALSE (ssRNA)
RNA: GGGAGUUCUACAGUCCGACGAUCUGGAAUUACGCUGAGAAGCUCCUGACGAUCUUCCUCAUGUACAACAGGAAUAGAUUCUAAAAUCAGCUGCAUCUGUUCAAGUUCAUGUGCACCUGCAAAAAGGGUUUUACCAGUCAGCAUCAACAGAGGAUUGAGCAUCA
B7: chr5:145543945:145543946:-_ENSG00000133706_ENST00000545646|hu_hu|hu_hu_hu_mus_True|58_108 (ssRNA)
RNA: GGGAGUUCUACAGUCCGACGAUCCUGAAUAGCCAGUGGUGGGAAAUAAUCAAGCCAGUGCUCUGCUUCAGAAAACUUUACUAUCUCGUCAUCAGAGAGCCCAAGGGAUUUCAUAAUGUCCCACUGGUACUUAGAAGAUCCUGCCAACAGAGGAUUGAGCAUCA
B8: chr1:173273950:173273951:-_ENSMUSG00000013997_ENSMUST00000111295|mus_hu|motif|central (ssRNA)
RNA: GGGAGUUCUACAGUCCGACGAUCAGGCCCCUGCCCUGGAAUCUCUACGUCACACAGAUGUGUCUUCCUGUAAGUGGCCACGGCUGCCCCUUUGCUGUUCAGCAGCACGUGACAAUUGUAGAUUUUCUGAGUCUGCUCCCAGUCCAACAGAGGAUUGAGCAUCA
B9: chr9:95013113:95013114:-_ENSG00000196305_ENST00000443024|hu_hu|hu_hu_hu_mus_False|18_28 (ssRNA)
RNA: GGGAGUUCUACAGUCCGACGAUCCUCAGUCAGAAAGGGCGUGUAAGGGGCCAUCAGUCUGCACAGAGAAAGCAGGACACUGAACAGUGUCUCCAGAGCCAUGACACAAUCCUCCAUCCCAUUUUCACCCUUUAACCUCCUCCUCAACAGAGGAUUGAGCAUCA
B10: chr5:34519336:34519337:-_ENSMUSG00000037235_ENSMUST00000042701|mus_hu|FALSE|FALSE (ssRNA)
RNA: GGGAGUUCUACAGUCCGACGAUCGGUGGUCAUUAAGCCCCUCACACGGCACCUGCCGAGGUUUGCAGCAAUGACGUUUAAUACUUCUGGAAUGAUUAGGAAUCUGAGAACAGACCGUGGGCGGCUAUGCUGACCAGGGCUCCGCAACAGAGGAUUGAGCAUCA
B11: chr5:135912371:135912372:-_ENSMUSG00000039959_ENSMUST00000060311|mus_hu|FALSE|FALSE (ssRNA)
RNA: GGGAGUUCUACAGUCCGACGAUCCAUGUUUUCUAGCUGUGCCUUCAAUCCACUGAUCUCUCUGUAUAGUCGCUCAAUUAAGUGGUCCUUCUCAUCCUUGUUCACACCAUUUUGACUGUUGAAAUUGAAGGGAUCACUGCUGAACAACAGAGGAUUGAGCAUCA
B12: chr1:163112212:163112213:-_ENSG00000143248_ENST00000313961|hu_hu|hu_hu_hu_mus_False|8_18 (ssRNA)
RNA: GGGAGUUCUACAGUCCGACGAUCUUUUAUUAUCAGUAAGAGUGAGUUACAUACUAGGCAAAGUAUUGGAUACAAUAAUCAGGAAACAAACACUAUUGGUCCAGAAUUUAAAACUUUUGGGAUAAAUGCUUACAAAUGGACUUACAACAGAGGAUUGAGCAUCA
B13: chr19:10649910:10649911:-_ENSMUSG00000024666_ENSMUST00000025568|mus_mus|FALSE|FALSE (ssRNA)
RNA: GGGAGUUCUACAGUCCGACGAUCCAUCUUCUGCCUGAUUUGUGGGACUCCCAAGGGUACAUUCCACAGUUCCGAAGAAAAUGACUACUGGUUUUCUCUCUGCCCAGAACUCCAGGAGAGAUGUUUAGUUUUUCCAAAUCGGAGCAACAGAGGAUUGAGCAUCA
B14: chr1:180251914:180251915:+_ENSMUSG00000026500_ENSMUST00000027781|mus_mus|FALSE|FALSE (ssRNA)
RNA: GGGAGUUCUACAGUCCGACGAUCGAUCCUAAUGAGCCAUAGAGUAUAGAUUCUCGAGCACAUGGAGUGUUCUCAACAUCUAAAAUACCUAGGAGCUUGAAGGGCUUUUUCUCCGUCUCGUGGGGCUCCGGGGCGGCCGCCAUGCAACAGAGGAUUGAGCAUCA
B15: chr2:150438701:150438702:-_ENSG00000168288_ENST00000303319|hu_hu|FALSE|FALSE (ssRNA)
RNA: GGGAGUUCUACAGUCCGACGAUCAUCCGAACCUGAUGAUCCUGCAGUCGAAAAGGCUUUGGGAUUGACAACCCUUUUAACUAAAGAGCAAAAUCCUGGGAGAUAGGAAACCAGUCUGGCUCUGUUACAAAGCACAUUGGCCAUCAACAGAGGAUUGAGCAUCA
B16: chr11:107358869:107358870:+_ENSMUSG00000020720_ENSMUST00000021063|mus_mus|FALSE|FALSE (ssRNA)
RNA: GGGAGUUCUACAGUCCGACGAUCUCUCUGGAAGUUGAUGACUCCAGCCAACCUGUCUACUUUAGCAAAGAUGGUCUUGUUAACGACUAGAUUCGAGAGGAAAGCCUCUGACUCAUCCACAGAGAGAUCCAGAAGUUGUGCCAUCAACAGAGGAUUGAGCAUCA
B17: chr2:62103349:62103350:-_ENSG00000115484_ENST00000544079|hu_mus|FALSE|FALSE (ssRNA)
RNA: GGGAGUUCUACAGUCCGACGAUCAAUAUAGGCUCUCUCCUCUCGAAGCACUCGAUCCAUCUGGGCAUAGUCAGAUACUACUAUUUGAUUAUCCAUAUCUGUUUUAGGAGCAGAUAAGCAAAACUGAAUAAGCCCAAUCUUAGCCAACAGAGGAUUGAGCAUCA
B18: chr3:130650941:130650942:+_ENSG00000017260_ENST00000359644|hu_mus|FALSE|FALSE (ssRNA)
RNA: GGGAGUUCUACAGUCCGACGAUCGAUAAGGGGAUUUUUAAACUGAGAAAUAUACUUCUUCCAUAAUGGUUCAUCUUCACUGAUAUCAAAUUCAUUCCAACCAUGGAAGGCUCGCCUAUGACUAACUUCAGAUUUGUUUAAGCCCAACAGAGGAUUGAGCAUCA
B19: chr4:148551591:148551592:-_ENSMUSG00000063077_ENSMUST00000060537|mus_hu|FALSE|FALSE (ssRNA)
RNA: GGGAGUUCUACAGUCCGACGAUCACCUGACAAAAUUAAAUAUCCCUGUAAAUUAGACAAUAAGCAGCAGGCAACAAAGUCUUUGCUUUGGAAUAUGUGCCAGGAAAAGUCAUCUUGUUUUUAGAUCUCAAGAGACAGUUCACACAACAGAGGAUUGAGCAUCA
B20: chr10:93459826:93459827:-_ENSMUSG00000036099_ENSMUST00000119818|mus_hu|motif|central (ssRNA)
RNA: GGGAGUUCUACAGUCCGACGAUCUCCCCAUACCAGCCAGGAAGACACAAUCCACCAAGUGGGAAGCAUAACGAGCAAGCGGAUGAAGGCAAAUAGCAUUGAGAGAUCCCAAAUAUUAGGGGUUGCCAGGGAGCAAAGUGUUGGCAACAGAGGAUUGAGCAUCA
B21: chr4:155193719:155193720:+_ENSMUSG00000029068_ENSMUST00000139066|mus_mus|FALSE|FALSE (ssRNA)
RNA: GGGAGUUCUACAGUCCGACGAUCAGACAAAAGCAACAAAACACUAAAAGUGGCAUCAAACUAAGUACACUUAAAAAUGCUAUAAUACUUUAGAUGAUAUGUAAGUACAAAACUUCACAUUUUUAGAAAAGUUAAAGGUCAUUUCAACAGAGGAUUGAGCAUCA
B22: chr14:102516957:102516958:+_ENSG00000197102_ENST00000360184|hu_mus|motif|central (ssRNA)
RNA: GGGAGUUCUACAGUCCGACGAUCCCAUCAACCCUUCCACACCGUUAAGGAUGAAUGAAGGUUAAAUAUUGGGAGUUUCCGGUUCCAGAAAGAGGACUGGAGAAAAGUCUAGCUUUACUCAGUGCACAGAACGGCAACUCCACGCAACAGAGGAUUGAGCAUCA

These binders were tested against T1, UNK ZnF1-3 (assay: nsRBNS (natural sequence RNA bind-n-seq); RBNS binding buffer (assumed for nsRBNS): 25 mM Tris pH 7.5, 150 mM KCl, 3 mM MgCl2, 0.01% Triton X-100, 500 ug/ml BSA, 20 U/ml SUPERase-In, 4 C; UNK is unkempt and MSI1 is Musashi-1; names of the RNAs are library labels; protein concentration not given here; high values mean tight binding).
B1 gave a binding signal of 1.38 enrichment R. For B2, the binding signal was 1.37 enrichment R. B3 showed a binding signal of 1.79 enrichment R. For B4, the binding signal was 0.87 enrichment R. B5 gave a binding signal of 0.72 enrichment R. B6 was tested, and the binding signal was 0.824 enrichment R. B7 was tested, and the binding signal was 1.14 enrichment R. In the case of B8, the binding signal is reported as 0.597 enrichment R. Work on B9 yielded a binding signal of 1.46 enrichment R. With B10 the binding signal was 1.08 enrichment R. B11 gave a binding signal of 0.629 enrichment R. B12 gave a binding signal of 1.09 enrichment R. B13 gave a binding signal of 1.39 enrichment R. B14 gave a binding signal of 1.26 enrichment R. In the case of B15, the binding signal is reported as 0.828 enrichment R. B16 gave a binding signal of 0.899 enrichment R. B17 gave a binding signal of 1.07 enrichment R. Work on B18 yielded a binding signal of 0.801 enrichment R. B19 showed a binding signal of 1.04 enrichment R. Binder B20 has a binding signal of 1.96 enrichment R. B21 was tested, and the binding signal was 1.32 enrichment R. B22 gave a binding signal of 1.11 enrichment R.
